# In the supplement of paper PMC8728848:
# Some of the results follow.
# Key:
# Experiment in all cases: glycan array binding signal (z-score within array); higher = stronger binding
# Conditions in all cases: glycan notation: IUPAC condensed, linker removed
# [1] = molecular target: Fuc(a1-2)[Gal(a1-3)]Gal(b1-4)GlcNAc(b1-2)Man(a1-3)[Fuc(a1-2)[Gal(a1-3)]Gal(b1-4)GlcNAc(b1-2)Man(a1-6)]Man(b1-4)GlcNAc(b1-4)[Fuc(a1-6)]GlcNAc
# Outline: (§1)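 Negative Z-scores can be read as non-binding. The Z-score is calculated within each array and then averaged across arrays of one protein sequence at different concentrations or buffers and across linkers. Arrays, 3228 in all, were curated from the Consortium for Functional Glycomics database and kept only where the protein sequence was available.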
# [2] = molecular target: Fuc(a1-2)[Gal(a1-3)]Gal(b1-4)GlcNAc(b1-3)GalNAc
# Outline: as §1
# [3] = molecular target: Fuc(a1-2)[Gal(a1-3)]Gal(b1-4)GlcNAc(b1-3)[Fuc(a1-2)[Gal(a1-3)]Gal(b1-4)GlcNAc(b1-6)]GalNAc
# Outline: as §1
# [4] = molecular target: Fuc(a1-2)[Gal(a1-3)]Gal(b1-4)GlcNAc(b1-6)GalNAc
# Outline: as §1
# [5] = molecular target: Fuc(a1-2)[Gal(a1-3)]Gal(b1-4)[Fuc(a1-3)]Glc
# Outline: as §1
# [6] = molecular target: Fuc(a1-2)[Gal(a1-3)]Gal(b1-4)[Fuc(a1-3)]GlcNAc
# Outline: as §1
# [7] = molecular target: Fuc(a1-2)[Gal(a1-3)]Gal(b1-4)[Fuc(a1-3)]GlcNAc(b1-3)GalNAc
# Outline: as §1
# [8] = molecular target: Fuc(a1-2)[Gal(a1-4)]Gal(b1-4)GlcNAc
# Outline: as §1
# [9] = molecular target: Fuc(a1-2)[GalNAc(a1-3)]Gal
# Outline: as §1
# [10] = molecular target: Fuc(a1-2)[GalNAc(a1-3)]Gal(b1-3)GalNAc(a1-3)[Fuc(a1-2)]Gal(b1-4)GlcNAc
# Outline: as §1
# [11] = molecular target: Fuc(a1-2)[GalNAc(a1-3)]Gal(b1-3)GalNAc(b1-3)Gal(a1-4)Gal(b1-4)Glc
# Outline: as §1
# [12] = molecular target: Fuc(a1-2)[GalNAc(a1-3)]Gal(b1-3)GlcNAc
# Outline: as §1
# [13] = molecular target: Fuc(a1-2)[GalNAc(a1-3)]Gal(b1-3)GlcNAc(b1-2)Man(a1-3)[Fuc(a1-2)[GalNAc(a1-3)]Gal(b1-3)GlcNAc(b1-2)Man(a1-6)]Man(b1-4)GlcNAc(b1-4)GlcNAc
# Outline: as §1
# [14] = molecular target: Fuc(a1-2)[GalNAc(a1-3)]Gal(b1-3)GlcNAc(b1-2)Man(a1-3)[Fuc(a1-2)[GalNAc(a1-3)]Gal(b1-3)GlcNAc(b1-2)Man(a1-6)]Man(b1-4)GlcNAc(b1-4)[Fuc(a1-6)]GlcNAc
# Outline: as §1
# [15] = molecular target: Fuc(a1-2)[GalNAc(a1-3)]Gal(b1-3)GlcNAc(b1-3)GalNAc
# Outline: as §1
# [16] = molecular target: Fuc(a1-2)[GalNAc(a1-3)]Gal(b1-3)GlcNAc(b1-6)GalNAc
# Outline: as §1
# [17] = molecular target: Fuc(a1-2)[GalNAc(a1-3)]Gal(b1-4)Glc
# Outline: as §1
# [18] = molecular target: Fuc(a1-2)[GalNAc(a1-3)]Gal(b1-4)GlcNAc
# Outline: as §1
# [19] = molecular target: Fuc(a1-2)[GalNAc(a1-3)]Gal(b1-4)GlcNAc(b1-2)Man
# Outline: as §1
# [20] = molecular target: Fuc(a1-2)[GalNAc(a1-3)]Gal(b1-4)GlcNAc(b1-2)Man(a1-3)[Fuc(a1-2)[GalNAc(a1-3)]Gal(b1-4)GlcNAc(b1-2)Man(a1-6)]Man(b1-4)GlcNAc(b1-4)GlcNAc
# Outline: as §1
# [21] = molecular target: Fuc(a1-2)[GalNAc(a1-3)]Gal(b1-4)GlcNAc(b1-2)Man(a1-3)[Fuc(a1-2)[GalNAc(a1-3)]Gal(b1-4)GlcNAc(b1-2)Man(a1-6)]Man(b1-4)GlcNAc(b1-4)[Fuc(a1-6)]GlcNAc
# Outline: as §1
# [22] = molecular target: Fuc(a1-2)[GalNAc(a1-3)]Gal(b1-4)GlcNAc(b1-3)Gal(b1-4)GlcNAc
# Outline: as §1
# [23] = molecular target: Fuc(a1-2)[GalNAc(a1-3)]Gal(b1-4)GlcNAc(b1-3)Gal(b1-4)GlcNAc(b1-3)Gal(b1-4)GlcNAc
# Outline: as §1
# [24] = molecular target: Fuc(a1-2)[GalNAc(a1-3)]Gal(b1-4)GlcNAc(b1-3)GalNAc
# Outline: as §1
# [25] = molecular target: Fuc(a1-2)[GalNAc(a1-3)]Gal(b1-4)GlcNAc(b1-3)[Fuc(a1-2)[GalNAc(a1-3)]Gal(b1-4)GlcNAc(b1-6)]GalNAc
# Outline: as §1
# [26] = molecular target: Fuc(a1-2)[GalNAc(a1-3)]Gal(b1-4)GlcNAc(b1-6)GalNAc
# Outline: as §1
# [27] = molecular target: Fuc(a1-2)[GalNAc(a1-3)]Gal(b1-4)[Fuc(a1-3)]GlcNAc
# Outline: as §1
# [28] = molecular target: Fuc(a1-2)[GalNAc(a1-3)]Gal(b1-4)[Fuc(a1-3)]GlcNAc(b1-3)GalNAc
# Outline: as §1
# [29] = molecular target: Fuc(a1-2)[GalNAc(a1-4)]Gal(b1-4)GlcNAc
# Outline: as §1
# [30] = molecular target: Fuc(a1-2)[GalNAc(b1-3)]Gal
# Outline: as §1
# Fuc(a1-3)GlcNAc = molecular target: Fuc(a1-3)GlcNAc
# Outline: as §1
# [31] = molecular target: Fuc(a1-3)[Gal(b1-4)]Glc6S
# Outline: as §1
# [32] = molecular target: Fuc(a1-3)[Gal(b1-4)]GlcNAc
# Outline: as §1
# [33] = molecular target: Fuc(a1-3)[Gal(b1-4)]GlcNAc(b1-2)Man
# Outline: as §1
# [34] = molecular target: Fuc(a1-3)[Gal(b1-4)]GlcNAc(b1-2)Man(a1-3)[Fuc(a1-3)[Gal(b1-4)]GlcNAc(b1-2)Man(a1-6)]Man(b1-4)GlcNAc(b1-4)GlcNAc
# Outline: as §1
# [35] = molecular target: Fuc(a1-3)[Gal(b1-4)]GlcNAc(b1-2)Man(a1-3)[Fuc(a1-3)[Gal(b1-4)]GlcNAc(b1-2)Man(a1-6)]Man(b1-4)GlcNAc(b1-4)[Fuc(a1-6)]GlcNAc
# Outline: as §1
# [36] = molecular target: Fuc(a1-3)[Gal(b1-4)]GlcNAc(b1-3)Gal(b1-3)[Fuc(a1-4)]GlcNAc
# Outline: as §1
binder,measurement,setting,value
LecRKVI.2 (protein) RTTTNFAFRGFNGNQSKIRIEGAAMIKPDGLLRLTDRKSNVTGTAFYHKPVRLLNRNSTNVTIRSFSTSFVFVIIPSSSSNKGFGFTFTLSPTPYRLNAGSAQYLGVFNKENNGDPRNHVFAVEFDTVQGSRDDNTDRIGNDIGLNYNSRTSDLQEPVVYYNNDDHNKKEDFQLESGNPIQALLEYDGATQMLNVTVYPARLGFKPTKPLISQHVPKLLEIVQEEMYVGFTASTGKGQSSAHYVMGWSFSSGGERPIADVLILSELPPPPPNKAKKEGLNS,glycan array binding signal (z-score),[1],-0.403
same,glycan array binding signal (z-score),[2],-0.375
same,glycan array binding signal (z-score),[3],1.79
same,glycan array binding signal (z-score),[4],-0.443
same,glycan array binding signal (z-score),[5],-0.393
same,glycan array binding signal (z-score),[6],-0.241
same,glycan array binding signal (z-score),[7],-0.276
same,glycan array binding signal (z-score),[8],-0.271
same,glycan array binding signal (z-score),[9],-0.335
same,glycan array binding signal (z-score),[10],-0.273
same,glycan array binding signal (z-score),[11],-0.183
same,glycan array binding signal (z-score),[12],-0.238
same,glycan array binding signal (z-score),[13],-0.337
same,glycan array binding signal (z-score),[14],-0.318
same,glycan array binding signal (z-score),[15],-0.129
same,glycan array binding signal (z-score),[16],-0.446
same,glycan array binding signal (z-score),[17],-0.344
same,glycan array binding signal (z-score),[18],-0.434
same,glycan array binding signal (z-score),[19],-0.48
same,glycan array binding signal (z-score),[20],4.57
same,glycan array binding signal (z-score),[21],-0.28
same,glycan array binding signal (z-score),[22],-0.304
same,glycan array binding signal (z-score),[23],-0.133
same,glycan array binding signal (z-score),[24],-0.467
same,glycan array binding signal (z-score),[25],-0.439
same,glycan array binding signal (z-score),[26],1.14
same,glycan array binding signal (z-score),[27],0.228
same,glycan array binding signal (z-score),[28],0.648
same,glycan array binding signal (z-score),[29],-0.15
same,glycan array binding signal (z-score),[30],-0.236
same,glycan array binding signal (z-score),Fuc(a1-3)GlcNAc,-0.379
same,glycan array binding signal (z-score),[31],-0.177
same,glycan array binding signal (z-score),[32],-0.358
same,glycan array binding signal (z-score),[33],-0.324
same,glycan array binding signal (z-score),[34],0.644
same,glycan array binding signal (z-score),[35],2.66
same,glycan array binding signal (z-score),[36],-0.43
